{"source": "the RNAGym collection of RNA variant scans (doi:10.1093/nar/gkz1192)", "parents": {"B1": {"name": "CPEB3 Ribozyme (parent)", "chain": "UAACAGGGGGCCACAGCAGAAGCGUUCACGUCGCAGCCCCUGUCAGAUUCUGGUGAAUCUGCGAAUUCUGCUGUAUAUCUC"}}, "note": "Read counts are not given, so values of variants with three or more changes are uncertain."}
{"variants_of": "B1", "assay": "self-cleavage, relative activity (ratio to wild type); higher = more cleavage; in vitro, sequencing", "method_in_brief": "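Relative activity was defined as the cleaved/total read fraction for a variant divided by the same fraction for the unmutated ribozyme. CPEB3 self-cleaving ribozyme libraries were made by rounds of error-prone PCR, barcoded, and transcribed in vitro with T7 RNA polymerase for 5 hours at 37°C, and cleavage ran through transcription plus a 15 min DNase I step before EDTA. Illumina sequencing of template-switched reverse transcripts gave the reads, and DNA sequencing mapped the barcodes. Averages come from three batches, using variants with at least 5 reads.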"}
{"variant": "UUACAGGGGGCCACAGCAGAAGCGUUCACGUCGCAGCCCCAGUCAGGUUCUGGUGAAUCUGCGAAUUCUGCUGUAUACCUC", "self-cleavage": 0.18}
{"variant": "UUACAGGGGGCCACAGCAGAAGCGUUCACGUCGCAGCCCCAGUCAGAUCCUGGUGAAUCUGCGAAAUCUGCUGUAGAUCUC", "self-cleavage": 0.13}
{"variant": "UUACAGGGGGCCACAGCAGAAGCGUUCACGUCGCAGCCCCCCUCAGAUUCAGGUGAAUCUGCGGAUUCUGCUGUAUAUCUC", "self-cleavage": 0.16}
{"variant": "UUACAGGGGGCCACAGCAGAAGCGUUCACGUCGCAGCCCCUGACAGAUUCUGGUGAAUCUGCGAACUCAGCUGUAUAUCUC", "self-cleavage": 0.21}
{"variant": "UUACAGGGGGCCACAGCAGAAGCGUUCACGUCGCAGCCCCUGCCAGAUUCUUGUGAAUCUGCGAAUUCUGCUGUAUAUCUC", "self-cleavage": 0.68}
{"variant": "UUACAGGGGGCCACAGCAGAAGCGUUCACGUCGCAGCCCCUGUCAGAUUCCGGUGAGUCUGCGAAUUCUGCUGUAUAUCUC", "self-cleavage": 0.78}
{"variant": "UUACAGGGGGCCACAGCAGAAGCGUUCACGUCGCAGCCCCUGUCAGAUUCUGGCGAAUCUGCGAACUCUGCUGUAUAUCCC", "self-cleavage": 0.28}
{"variant": "UACCCGGGGGCCACAGCAGAAGCGUACACGUCGCAGCCCCUGUCAGAUUCUGGUGAAUCUGCGAAUUCUGCUGUACAUCUC", "self-cleavage": 0.62}
{"variant": "UACCGGGGGGCCACGGCGGAAGCGCUCACGUCGCAGCCCCUGUCAGAUUCCGGUGAAUCUGCGAGUUCUGCUGUAUAUCUC", "self-cleavage": 1.2}
{"variant": "UACCUGGGGGCCACAGCAGAAGCGUUCACGUCGCAGCCCCUGUCAGAUUCUGGUGGAUCUGCGAAUUCUGCUGUAUAUCUC", "self-cleavage": 0.76}
{"variant": "UACCUGGGGGCCACAGCAGAAGCGUCCACGUCGCAGCCCCUGUCAGAUUCUGGUGAAUCUGCGAAUUCUGCUGUAUAUCUC", "self-cleavage": 0.62}
{"variant": "UACCAGGGGGCCGCAGCAGAAGCGUUCACGUUGCAGCCCCUGUCAGAUUCUGGCGAAUCUGCGAAUUCUGCUGUAUAUCUC", "self-cleavage": 0.19}
{"variant": "UACCAGGGGGCCUCAGCAGAAGCGUUCACGUCGCUGCCCCUGUCAGAUUCUGGUGAAUCUGCGAAUUCUGCUGCAUAUCUC", "self-cleavage": 1.24}
{"variant": "UACCAGGGGGCCACGGCAGAAGCGUUCACGUCGCAGCCCCUGUCAGGUUCUGGUGAAUCAGCGAAUUCUGCUGUAUAUCUC", "self-cleavage": 0.49}
{"variant": "UACCAGGGGGCCACGGCAGAAGCGUUCAUGUCGCAGCCCCUGCCAGUUUCUGGUGAAUCAGCGAAUUCUGCUGUAUAUCUC", "self-cleavage": 0.18}
{"variant": "UACCAGGGGGCCACGGCAGAAGCGUUCACGUCGCAGCUCCUGUCAGAUUCUGGUGAAUCAGCGCAUUCUGCUGUAUAUCUC", "self-cleavage": 0.19}
{"variant": "UACCAGGGGGCCACGGCAGAAGCGCUCACGUCGCUGCCCCUGUCAGAUUCUGGUGAAUCUGCGAAUUCUGCUGUAUAUCUC", "self-cleavage": 0.39}
{"variant": "UACCAGGGGGCCACGGCAGAAGCGUAAACGUCGCAGCCCCUGUCAGAUUCUGGUGAAUCUGCGUAUUCUGCUGUAUAUCUC", "self-cleavage": 0.09}
{"variant": "UACCAGGGGGCCACAGCGGAAGCGUUCACGUCGCAGCCCCUGUCAGAUUCUGGUGAAUCGGCGAAUACUGCUGUAUAUCUC", "self-cleavage": 0.47}
{"variant": "UACCAGGGGGCCACAGCAGCAGCGUUCACGUCGCAGCCCCUGUCUGAUUCUGGUGAAUCUGCGAAUUCUGCCGUAUGUCUC", "self-cleavage": 0.11}
{"variant": "UACCAGGGGGCCACAGCAGGAGCGUUCACGUCGCAGCCCCUGUCAGAUUCCGGUGAAUCUGCGAAUUCUGCUGUAUAUCUC", "self-cleavage": 1.08}
{"variant": "UACCAGGGGGCCACAGCAGUAGUGUUCACGUCGCUGCCCCUGUCAGGUUCUGGUGAAUCUGCGAAUUCUGCAGUAUGUCUC", "self-cleavage": 0.12}
{"variant": "UACCAGGGGGCCACAGCAGACGCGUUCACGACGCAGCCCCUGUCAGAUUCUGGUGAAUCUGCGAAUUCUGCUGUAUAUCCC", "self-cleavage": 0.45}
{"variant": "UACCAGGGGGCCACAGCAGAGGCGUUCAUGUCGCAGCCCCUGUCAGAUUCUGGUGAGUCUGCGAAUUCUGCCGAAUAUCUC", "self-cleavage": 0.28}
{"variant": "UACCAGGGGGCCACAGCAGAGGCGUCCACGUCGCAGCCCCUGUCAGAUUCUGGUGAAUCUGCGAAUUCUGCUGUAUAUCUC", "self-cleavage": 0.61}
{"variant": "UACCAGGGGGCCACAGCAGAGGCGUUCACGUCGCAGCCCCCGUCAGAUUCUGGUGAAUCUGCGAAUCCUGCUGUAUAUCUC", "self-cleavage": 0.58}
{"variant": "UACCAGGGGGCCACAGCAGAAGCGUUCUCGUCGCAGCCCCUGUCAGAUUCUGGUGAAUCUGGGAAUUCUGCUGUAUAUCCC", "self-cleavage": 0.17}
{"variant": "UACCAGGGGGCCACAGCAGAAGCGUUCACGUCGCAGCCCCUGUCAGAUUCUGGUGGAUCUGCUAAUUCUGCUGUAUGUCUC", "self-cleavage": 1.15}
{"variant": "UACCAGGGGGCCACAGCAGAAGCGUUCACGUCGCAGCCCCUGUCAGAUUCUGGUGGAUCUGCGAAUUCUGCUGUAUAUCCC", "self-cleavage": 0.91}
{"variant": "UACCAGGGGGCCACAGCAGAAGCGUUCACGUCGCAGCCCCUGUCAGAUUCUGGUGAUUCUGCGAAUUCAGCUGUAUAUCUC", "self-cleavage": 0.4}
{"variant": "UACCAGGGGGGCACAGCAGAAGCGUUCACGUAGCAGCCCCAGUCAGAUUCUGGUGAAUCUGCGAAUUCUGCUGUAUAUCUC", "self-cleavage": 0.33}
{"variant": "UACCAGGGGGGCACAGCAGAAGCGUUCACGUCGCAGCCCCAGUCGGAUUCUGGUGGAUCUGCGAAUUCUGCUGUAUAUCUC", "self-cleavage": 0.11}
{"variant": "UACCAGGGGGCCACAGCAGAAGCGUUUGCGUCGCAGCCCCUGUCAGAUUCUGGUGAAUCUGCGAAUUCUGCUGUAUAUCUC", "self-cleavage": 0.3}
{"variant": "UACCAAGGGGCCACAGCAGAAGCGUUCACGUCGCAGCCCCCGUCAGAUACUGGUGAAUCUGCGAAUUCUGCUGUAUAUCUC", "self-cleavage": 0.52}
